Experimental data published in paper PMC6823436, “Phase separation of Polo-like kinase 4 by autoactivation and clustering drives centriole biogenesis” (Nature Communications, 2019).
Changes are numbered by the printed parent chain. These are yes or no findings as the source states them, for the method shown. In cells and extracts the contact can be indirect. Some results given as binding are weak or reduced against the parent protein; the word gives no strength. Blank lines part the entries; values can stand above or below the molecule they belong to.

Assays:
[1] = biological target: T1, Polo-like kinase 4 (Plk4) WT, full length (human) (UniProt O00444); experiment: co-IP; HEK293T cells cotransfected with the constructs; IP in TBSN buffer (20 mM Tris-Cl pH 8.0, 150 mM NaCl, 0.5% NP-40, 5 mM EGTA, 2 mM MgCl2, 1.5 mM EDTA, 2 mM DTT, 20 mM PNPP); IP samples treated with lambda phosphatase where indicated before SDS-PAGE and immunoblotting
T1 sequence: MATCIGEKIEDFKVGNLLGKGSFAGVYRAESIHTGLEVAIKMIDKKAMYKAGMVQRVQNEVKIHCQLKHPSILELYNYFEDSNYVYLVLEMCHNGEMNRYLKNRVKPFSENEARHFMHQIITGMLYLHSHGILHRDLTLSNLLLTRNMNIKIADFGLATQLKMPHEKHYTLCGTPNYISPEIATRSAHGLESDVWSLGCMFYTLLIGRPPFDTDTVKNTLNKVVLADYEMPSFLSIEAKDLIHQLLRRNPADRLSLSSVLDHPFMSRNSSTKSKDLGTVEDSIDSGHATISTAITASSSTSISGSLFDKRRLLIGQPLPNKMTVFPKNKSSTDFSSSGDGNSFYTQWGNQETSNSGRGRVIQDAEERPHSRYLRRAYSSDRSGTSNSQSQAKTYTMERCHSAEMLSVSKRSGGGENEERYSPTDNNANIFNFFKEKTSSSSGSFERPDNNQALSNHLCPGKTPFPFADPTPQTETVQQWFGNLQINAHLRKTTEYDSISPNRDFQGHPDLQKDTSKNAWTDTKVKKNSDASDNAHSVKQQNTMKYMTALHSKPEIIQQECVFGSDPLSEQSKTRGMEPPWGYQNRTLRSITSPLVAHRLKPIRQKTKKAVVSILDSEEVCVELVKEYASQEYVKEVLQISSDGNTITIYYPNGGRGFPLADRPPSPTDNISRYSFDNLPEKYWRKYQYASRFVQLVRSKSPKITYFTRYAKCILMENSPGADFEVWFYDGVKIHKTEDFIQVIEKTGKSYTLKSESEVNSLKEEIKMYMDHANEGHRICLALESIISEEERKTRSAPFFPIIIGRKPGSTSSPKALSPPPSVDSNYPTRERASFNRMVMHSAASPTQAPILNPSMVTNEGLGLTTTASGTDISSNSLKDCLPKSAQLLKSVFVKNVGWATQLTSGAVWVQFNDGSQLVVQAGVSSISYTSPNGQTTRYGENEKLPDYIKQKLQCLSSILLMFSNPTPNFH

[2] = biological target: T2, Plk4 CP (condensation-proficient mutant S698E, S700E, T704E, T707D), full length (human) (UniProt O00444); experiment: as above
T2 sequence: T1 sequence with S698E, S700E, T704E, T707D

[3] = biological target: T3, Plk4 KM CP (K41M, S698E, S700E, T704E, T707D), full length (human) (UniProt O00444); experiment: as above
T3 sequence: T1 sequence with K41M, S698E, S700E, T704E, T707D

[4] = biological target: T4, Plk4 K41M (KM), kinase-inactive, full length (human) (UniProt O00444); experiment: as above
T4 sequence: T1 sequence with K41M

[5] = biological target: T2, Plk4 CP (condensation-proficient mutant S698E, S700E, T704E, T707D), full length (human); experiment: co-IP; IP performed with a mixture of individually transfected lysates

binding [1]: binds
binding [2]: no binding
binding [3]: no binding
binding [4]: binds
Molecule: full-length Cep152 (from UniProt O94986 1-1710)

binding [5]: no binding
Molecule: Cep152 (construct not stated) (from UniProt O94986 1-1710)

binding [1]: binds
binding [2]: no binding
binding [3]: no binding
binding [4]: binds
B1: Cep152 (1–217) N-terminal fragment (domain or fragment, UniProt O94986 1-217)
chain: MSLDFGSVALPVQNEDEEYDEEDYEREKELQQLLTDLPHDMLDDDLSSPELQYSDCSEDGTDGQPHHPEQLEMSWNEQMLPKSQSVNGYNEIQSLYAGEKCGNVWEENRSKTEDRHPVYHPEEGGDEGGSGYSPPSKCEQTDLYHLPENFRPYTNGQKQEFNNQATNVIKFSDPQWNHFQGPSCQGLEPYNKVTYKPYQSSAQNNGSPAQEITGSDT
